Test results from PubChem BioAssay AID1345082 (National Center for Advancing Translational Sciences (NCATS), 2018).
The whole screen tested about 94,000 compounds, of which about 4,000 (4.3%) were called active. The inconclusive results got no clear call from the source; some entries with a clear call stand among them for comparison. The call rests on the fitted dose curve; in most records, active means well fitted inhibition curve with a large enough effect; inconclusive means small, poorly fitted or top-dose-only effect; inactive means no such curve, though single readings can be large or run the other way. Potencies of inconclusive entries are doubtful fits and often do not repeat.

Experiment: Cytotoxic Profiling in NIH 3T3 Cell Line of Diverse Libraries Using Quantitative High-Throughput Screening; further: nearly all actives have a fitted effect of over 55% in size
Conditions: NIH 3T3 viability, CellTiter-Glo ATP luminescence, 48-72 h; activity change, negative = cytotoxicity: at 96.7 µM (top of the series) unless noted; series mostly up to 96.7 µM
Procedure, shortened: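 ATP-dependent luminescence (CellTiter-Glo) served as the viability signal for NIH 3T3 cells treated with compound for 48 or 72 hr at 37 °C.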
On the % scale 0 is the no-effect control and ±100 the full control effect; potency means the concentration at half of the fitted maximal effect; tags describe the fitted curve by direction and shape.

SMILES	activity change, negative = cytotoxicity	Potency	outcome
CN(Cc1cccc(F)c1)Cc1cccn1C	inactive: -3.31% [at 174 µM]		
O=C(COc1ccccc1)N1C[C@@H](F)[C@@H](OCc2nc3ncccc3[nH]2)C1	inactive: -8.23% [at 174 µM]		
Cn1ncc(N2CCCC(CC(=O)Nc3cccc(Cl)c3)C2)cc1=O (stereo not drawn)		inconclusive: 50.1 µM [inhibitor, partial curve, poor fit]	
Cc1ccccc1C(=O)N1CCC(N2CCCNC2=O)CC1		inactive	
COc1ccc(-n2cc(CN3C[C@@H](C)O[C@@H](C)C3)c(-c3cccc(F)c3)n2)cc1	inactive: -19.1%		
COc1ccc(N2Cc3c(NCCc4ccccc4F)ncnc3N(C)CC2=O)cc1		inconclusive: 44.7 µM [inhibitor, partial curve]	
COCCCNC(=O)[C@@H]1CCCN1c1nccc(Nc2ccccc2OC)n1	inactive: -16%		
N#Cc1cccnc1-c1ccc(C(=O)N2CCC(NC(=O)c3ccc(C(F)(F)F)cc3)CC2)cc1		inconclusive: 35.5 µM [inhibitor, partial curve, poor fit]	
O=C1CCN(C[C@@H](O)COCc2ccccc2)c2cc3c(cc2CN1C1CCCC1)OCO3		inconclusive: 50.1 µM [inhibitor, partial curve, poor fit]	
Cc1ccc(C(=O)Nc2ccc3ncnc(N4CCCCC4)c3c2)s1		inconclusive: 44.7 µM [inhibitor, partial curve, poor fit]	
O=C(Cc1c[nH]c2ncc(-c3cccnc3)cc12)Nc1ccccc1		active: 25.1 µM	
COC(=O)Nc1cc(-c2cccnc2)nn1-c1ccccc1		inconclusive: 112 µM [inhibitor, partial curve, poor fit]	
CCC(=O)N1CCC2(CC1)CC(N(CC)CC)CCO2 (stereo not drawn)			inactive
CC1(C(=O)NCC2CC2)CCCc2cnc(NCc3ccccc3)nc21 (stereo not drawn)		inconclusive: 50.1 µM [inhibitor, partial curve, poor fit]	
CNC(=O)c1noc(CN2CCCC(CCc3ccccc3F)C2)n1 (stereo not drawn)	inactive: -34.5%		
Cc1cnc(C2CCC2)n1CCNC(=O)c1cc(C2CC2)[nH]n1			inactive
O=C(C1CCN(c2nccc(Nc3ccccc3Cl)n2)CC1)N1CCN(Cc2ccccc2)CC1		active: 31.6 µM	
CC1(C(=O)NCc2ccncc2)CCCc2cnc(Nc3ccccc3)nc21 (stereo not drawn)		active: 100 µM	
COc1ccc(F)cc1-c1cccc(C(=O)NCCNC(=O)c2ccc(C)cc2)c1	inactive: -32.1%		
O=C(NC1CCCN(c2cc(-c3ccccc3)[nH]n2)C1)c1cc(F)ccc1Cl (stereo not drawn)		inconclusive: 50.1 µM [inhibitor, partial curve, poor fit]	
CCCc1ccccc1OCC(=O)c1ccc2c(c1)N(CC(=O)NCC1CC1)C(=O)CO2	inactive: -21.9%		
COc1ccc(-n2nc(C)c([C@@H]3C=C[C@@H](NCc4ccc(N(C)C)cc4)C3)c2C)cc1		inconclusive: 56.2 µM [inhibitor, partial curve, poor fit]	
COc1ccc(C2(C(=O)N3CC4CC(C3)[C@H]3CCCC(=O)N3C4)CCCCC2)cc1 (stereo partly drawn)	inactive: 2.77%		

SMILES	activity change, negative = cytotoxicity	Potency	outcome
CN(C)C(=O)CO[C@H]1COCCN(Cc2ccccn2)C1	inactive: 3.69% [at 138 µM]		
COc1ccccc1-c1ccc(CN2CCN(c3cc(Cl)ncn3)C(=O)C2)cc1		inconclusive: 50.1 µM [inhibitor, partial curve, poor fit]	
CC(C)NC(=O)C1CCCN(c2nc3ncccc3o2)C1 (stereo not drawn)			inactive [at 138 µM]
Cc1onc(-c2cnn(C)c2NCCc2ccccc2)c1C(=O)NCc1ccoc1		inconclusive: 100 µM [inhibitor, partial curve, poor fit]	
O=C(Cc1ccc2c(c1)OCO2)N1CCNc2cnc(Nc3cccc(F)c3)nc2C1		inconclusive: 89.1 µM [inhibitor, partial curve, poor fit]	
O=C(c1ncoc1C1CC1)N1CCOCC(O)(CN2CCCC2)C1 (stereo not drawn)	inactive: -15.5%		
CC(c1ccc2c(c1)OCCO2)N(C)C(=O)c1ccc2nccn2c1 (stereo not drawn)		inconclusive: 17.8 µM [inhibitor, full curve, poor fit]	
Cc1ccccc1-c1cccc(C(=O)N(C)Cc2ncc[nH]2)c1	inactive: -21.8%		
CCOC(=O)[C@H]1[C@@H](O)C(=O)N(Cc2ccccc2)C12CCN(C(=O)Cc1ccccc1)CC2		inconclusive: 50.1 µM [inhibitor, single point]	
COc1ccc2c(c1)c(CN1CCC(F)(C(=O)NCc3ccccc3)CC1)cn2C		inconclusive: 56.2 µM [inhibitor, partial curve, poor fit]	
Cc1cn2nc(C(=O)NCc3ccc(F)cc3)cc2c(N(C)Cc2ccccc2)n1		inconclusive: 31.6 µM [inhibitor, full curve]	
CC[C@H]1CN(C(=O)Nc2cccc(C(F)(F)F)c2)CC[C@H]1CC(=O)NC1CC1		inconclusive: 79.4 µM [inhibitor, partial curve, poor fit]	
COc1cccc(CC(=O)NC2CCN(c3cc(-c4ccccc4)[nH]n3)C2)c1 (stereo not drawn)		inconclusive: 31.6 µM [inhibitor, full curve, poor fit]	
CCCC1(CO)CCCN(Cc2cc(-c3ccc(C)cc3)no2)C1 (stereo not drawn)		inconclusive: 79.4 µM [inhibitor, partial curve, poor fit]	
COc1ccc(OCc2nc(C(=O)N3CCC4(CCCN(C)C4=O)C3)co2)cc1 (stereo not drawn)		inconclusive: 89.1 µM [inhibitor, partial curve, poor fit]	
COc1ccc(Cn2c(=O)c(C(=O)NCc3cccc(Cl)c3)nc3cccnc32)cc1		inconclusive: 39.8 µM [inhibitor, partial curve, poor fit]	
CCc1ccc(S(=O)(=O)N2CCC(n3cnnc3CCOC)CC2)cc1		inconclusive: 70.8 µM [inhibitor, single point]	
Cc1ccc(CNC(=O)c2ccc3c(c2)CN(C2CCC2)CCO3)cc1	inactive: -16.1%		
O=C(Cc1c(F)cccc1Cl)NC1CCN(c2cc(-c3ccccc3)[nH]n2)CC1		inconclusive: 15.8 µM [inhibitor, full curve]	
O=C(NCc1cccc(F)c1)C1CN(C2CCCCC2)C(=O)N1 (stereo not drawn)	inactive: -21.5% [at 138 µM]		
Cn1c(-c2nc(-c3cn4ccccc4n3)no2)cc(=O)n(C)c1=O	inactive: -25.1%		
CC/C=C/CC(=O)N1CCC2(CCN(Cc3cccnc3)CC2)C(CO)C1 (stereo not drawn)	inactive: 3%		
COc1ccc(F)cc1-c1cccc(C(=O)NCCNC(=O)C2CCCC2)c1		inconclusive: 39.8 µM [inhibitor, partial curve, poor fit]	

SMILES	activity change, negative = cytotoxicity	Potency	outcome
O=C(c1ccc2ncccc2c1)N1CCC(c2nc(CCOCC3CCOCC3)no2)C1 (stereo not drawn)	inactive: -20.2%		
O=C(NCc1ccc(F)cc1)C1CCN(c2ccnc3ccnn23)CC1		inconclusive: 11.2 µM [inhibitor, full curve, poor fit]	
COc1ccc(-c2ccc(C(=O)N3CCC(NC(=O)c4ccccc4Cl)CC3)cc2)nn1	inactive: -27%		
Cc1ccc(-c2noc(-c3nc(C(C)C)no3)n2)cc1	inactive: -4.62%		
O=C1CCC2(C(=O)NCc3ccc(F)cc3)CCCC=C2N1C1CCCC1 (stereo not drawn)		inconclusive: 56.2 µM [inhibitor, partial curve, poor fit]	
CCOC(=O)[C@H]1C[C@]2(CCCCN(CCOC(C)=O)C2=O)N(C(=O)OCC)[C@H]1c1ccco1	inactive: -22.4%		
CC(C)(C)CCN1CCCC(COc2ccccc2C(=O)N2CCOCC2)C1 (stereo not drawn)	inactive: -4.16%		
O=S(=O)(c1ccc(F)cc1)N1CCC(OC2CCN(Cc3ccccc3)CC2)CC1		inconclusive: 44.7 µM [inhibitor, partial curve, poor fit]	
COc1nc2c(cc1CNC(=O)Cn1ccc(C)n1)C(=O)N(C1CCCC1)C2		inconclusive: 79.4 µM [inhibitor, partial curve, poor fit]	
COc1ccc(-c2ccc3c(n2)CN(Cc2csc(C)n2)C(=O)CO3)cc1F		inconclusive: 89.1 µM [inhibitor, partial curve]	
COc1cccc(NC(=O)Cn2c(=O)n(-c3ccc(F)cc3)c(=O)c3c2cc(C)n3C)c1	inactive: -15.1%		
CNC(=O)c1cccc(-c2cnc3[nH]cc(CC(=O)Nc4cccc(F)c4)c3c2)c1		inconclusive: 56.2 µM [inhibitor, partial curve, poor fit]	
COc1ccc(C(=O)N2CCC3(CC2)C(OC)CN3c2cccc(F)c2)cn1 (stereo not drawn)	inactive: -18.5%		
CC1=NS(=O)(=O)N(Cc2cccc(C)c2)C=C1C(=O)O			inactive
Cc1csc(NC(=O)c2nc3c(o2)CCN(CC2CCCC2)CC3)n1		inconclusive: 44.7 µM [inhibitor, partial curve]	
CS(=O)(=O)N1CCC(C2CCN(Cc3ccc(C#N)cc3)C2)CC1 (stereo not drawn)		inconclusive: 39.8 µM [inhibitor, partial curve]	
COc1ccc(C(=O)Nc2ccc(-c3noc([C@@H]4CCCN4CC4CCCCC4)n3)cn2)cc1		inconclusive: 31.6 µM [inhibitor, partial curve, poor fit]	
O=C1CCN(C(=O)CCc2ccccc2)CCCC(c2nc(-c3ccccc3)no2)CCN1 (stereo not drawn)		inconclusive: 50.1 µM [inhibitor, partial curve, poor fit]	
CC(=O)Nc1cccc(-c2ncc3c(n2)OCCN(Cc2ccccc2)C3=O)c1		inconclusive: 12.6 µM [inhibitor, full curve, poor fit]	
Cc1cc(N2CCCC(Cn3cc(Cc4ccccc4)nn3)C2)nc(N)n1 (stereo not drawn)		inconclusive: 56.2 µM [inhibitor, partial curve, poor fit]	
CSc1ccc(-c2cccc(C(=O)NCC(=O)NCCc3ccccc3)c2)cc1		inconclusive: 50.1 µM [inhibitor, partial curve, poor fit]	
COc1ccc(CN2CCC(CO)(CN3CCCC3)CC2)c(OC)c1C		inconclusive: 50.1 µM [inhibitor, partial curve, poor fit]	
